# Reference: the supplement of paper PMC8728848
# Some of the results follow.
# B1: CSA (Cytisus scoparius), P29257 (protein)
# chain: SEELSFSFTKFKTDQKNLILQRDALITPTGKLQLTTVENGKPAAYSLGRALYSTPIHIWDKSTGDEASFATFFSFVISDAPNPSTAATDGLAFFLAPADTQPQSAGGYLGLFEKDSSYNSSNQIVAVEFDTYYNSAWDPQTNPHIGIDVNTIKSKKVSSWGFKNGNVATVLITYQPSSKSLVASLVYPSGQTSDKTSYIISANVDLKATVPEWVRIGFSATTGQTDNYIETHDILSWSFKSKLPATKN
# What was measured:
# Experiment in all cases: glycan array binding signal (z-score within array); higher = stronger binding
# Conditions in all cases: glycan notation: IUPAC condensed, linker removed
# Fuc(a1-4)GlcNAc = target: Fuc(a1-4)GlcNAc
# Outline: (§1)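 Glycan array binding is given as a within-array Z-score, which can be read as non-binding when negative. The arrays, 3228 of them, came from the Consortium for Functional Glycomics database and were retained only where the protein sequence was available. Z-scores were averaged across arrays of the same protein sequence at different concentrations or buffers and across linkers.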
# Fuc(b1-3)GlcNAc = target: Fuc(b1-3)GlcNAc
# Outline: as §1
# Gal(a1-2)Gal = target: Gal(a1-2)Gal
# Outline: as §1
# Gal(a1-3)Gal = target: Gal(a1-3)Gal
# Outline: as §1
# Gal(a1-3)Gal(b1-3)GlcNAc = target: Gal(a1-3)Gal(b1-3)GlcNAc
# Outline: as §1
# [1] = target: Gal(a1-3)Gal(b1-3)GlcNAc(b1-2)Man
# Outline: as §1
# [2] = target: Gal(a1-3)Gal(b1-3)GlcNAc(b1-2)Man(a1-3)[Gal(a1-3)Gal(b1-3)GlcNAc(b1-2)Man(a1-6)]Man(b1-4)GlcNAc(b1-4)GlcNAc
# Outline: as §1
# [3] = target: Gal(a1-3)Gal(b1-3)GlcNAc(b1-3)GalNAc
# Outline: as §1
# [4] = target: Gal(a1-3)Gal(b1-3)GlcNAc(b1-6)GalNAc
# Outline: as §1
# [5] = target: Gal(a1-3)Gal(b1-3)[Fuc(a1-4)]GlcNAc(b1-2)Man(a1-3)[Gal(a1-3)Gal(b1-3)[Fuc(a1-4)]GlcNAc(b1-2)Man(a1-6)]Man(b1-4)GlcNAc(b1-4)GlcNAc
# Outline: as §1
# Gal(a1-3)Gal(b1-4)Glc = target: Gal(a1-3)Gal(b1-4)Glc
# Outline: as §1
# Gal(a1-3)Gal(b1-4)GlcNAc = target: Gal(a1-3)Gal(b1-4)GlcNAc
# Outline: as §1
# [6] = target: Gal(a1-3)Gal(b1-4)GlcNAc(b1-2)Man
# Outline: as §1
# [7] = target: Gal(a1-3)Gal(b1-4)GlcNAc(b1-2)Man(a1-3)[Gal(a1-3)Gal(b1-4)GlcNAc(b1-2)Man(a1-6)]Man(b1-4)GlcNAc(b1-4)GlcNAc
# Outline: as §1
# [8] = target: Gal(a1-3)Gal(b1-4)GlcNAc(b1-3)GalNAc
# Outline: as §1
# [9] = target: Gal(a1-3)Gal(b1-4)GlcNAc(b1-6)GalNAc
# Outline: as §1
# [10] = target: Gal(a1-3)Gal(b1-4)[Fuc(a1-3)]GlcNAc
# Outline: as §1
# [11] = target: Gal(a1-3)Gal(b1-4)[Fuc(a1-3)]GlcNAc(b1-2)Man(a1-3)[Gal(a1-3)Gal(b1-4)[Fuc(a1-3)]GlcNAc(b1-2)Man(a1-6)]Man(b1-4)GlcNAc(b1-4)GlcNAc
# Outline: as §1
# Gal(a1-3)GalNAc = target: Gal(a1-3)GalNAc
# Outline: as §1
# [12] = target: Gal(a1-3)[Gal(a1-4)]Gal(b1-4)GlcNAc
# Outline: as §1
# [13] = target: Gal(a1-4)Gal(b1-3)GlcNAc(b1-2)Man(a1-3)[Gal(a1-4)Gal(b1-3)GlcNAc(b1-2)Man(a1-6)]Man(b1-4)GlcNAc(b1-4)GlcNAc
# Outline: as §1
# Gal(a1-4)Gal(b1-4)Glc = target: Gal(a1-4)Gal(b1-4)Glc
# Outline: as §1
# Gal(a1-4)Gal(b1-4)GlcNAc = target: Gal(a1-4)Gal(b1-4)GlcNAc
# Outline: as §1
# [14] = target: Gal(a1-4)Gal(b1-4)GlcNAc(b1-2)Man(a1-3)[Gal(a1-4)Gal(b1-4)GlcNAc(b1-2)Man(a1-6)]Man(b1-4)GlcNAc(b1-4)GlcNAc
# Outline: as §1
# [15] = target: Gal(a1-4)Gal(b1-4)GlcNAc(b1-3)Gal(b1-4)Glc
# Outline: as §1
# Gal(a1-4)GlcNAc = target: Gal(a1-4)GlcNAc
# Outline: as §1
# Gal(a1-6)Glc = target: Gal(a1-6)Glc
# Outline: as §1
# Gal(b1-2)Gal = target: Gal(b1-2)Gal
# Outline: as §1
# Gal(b1-3)Gal = target: Gal(b1-3)Gal
# Outline: as §1
# Gal(b1-3)Gal(b1-4)GlcNAc = target: Gal(b1-3)Gal(b1-4)GlcNAc
# Outline: as §1
# Gal(b1-3)GalNAc = target: Gal(b1-3)GalNAc
# Outline: as §1
# [16] = target: Gal(b1-3)GalNAc(a1-3)[Fuc(a1-2)]Gal(b1-4)Glc
# Outline: as §1
# [17] = target: Gal(b1-3)GalNAc(a1-3)[Fuc(a1-2)]Gal(b1-4)GlcNAc
# Outline: as §1
# Gal(b1-3)GalNAc(b1-3)Gal = target: Gal(b1-3)GalNAc(b1-3)Gal
# Outline: as §1
# [18] = target: Gal(b1-3)GalNAc(b1-3)Gal(a1-4)Gal(b1-4)Glc
# Outline: as §1
# [19] = target: Gal(b1-3)GalNAc(b1-4)Gal(b1-4)Glc
# Outline: as §1
# [20] = target: Gal(b1-3)GalNAc(b1-4)[Neu5Ac(a2-3)]Gal(b1-4)Glc
# Outline: as §1
# Gal(b1-3)GlcNAc = target: Gal(b1-3)GlcNAc
# Outline: as §1
binder,measurement,setting,value
B1,glycan array binding signal (z-score),Fuc(a1-4)GlcNAc,-0.201
same,glycan array binding signal (z-score),Fuc(b1-3)GlcNAc,-0.186
same,glycan array binding signal (z-score),Gal(a1-2)Gal,-0.183
same,glycan array binding signal (z-score),Gal(a1-3)Gal,-0.186
same,glycan array binding signal (z-score),Gal(a1-3)Gal(b1-3)GlcNAc,-0.158
same,glycan array binding signal (z-score),[1],-0.192
same,glycan array binding signal (z-score),[2],0.014
same,glycan array binding signal (z-score),[3],-0.187
same,glycan array binding signal (z-score),[4],-0.218
same,glycan array binding signal (z-score),[5],-0.023
same,glycan array binding signal (z-score),Gal(a1-3)Gal(b1-4)Glc,-0.157
same,glycan array binding signal (z-score),Gal(a1-3)Gal(b1-4)GlcNAc,-0.176
same,glycan array binding signal (z-score),[6],-0.171
same,glycan array binding signal (z-score),[7],-0.13
same,glycan array binding signal (z-score),[8],-0.149
same,glycan array binding signal (z-score),[9],-0.188
same,glycan array binding signal (z-score),[10],-0.173
same,glycan array binding signal (z-score),[11],-0.162
same,glycan array binding signal (z-score),Gal(a1-3)GalNAc,-0.161
same,glycan array binding signal (z-score),[12],-0.124
same,glycan array binding signal (z-score),[13],-0.166
same,glycan array binding signal (z-score),Gal(a1-4)Gal(b1-4)Glc,-0.198
same,glycan array binding signal (z-score),Gal(a1-4)Gal(b1-4)GlcNAc,-0.176
same,glycan array binding signal (z-score),[14],-0.162
same,glycan array binding signal (z-score),[15],-0.093
same,glycan array binding signal (z-score),Gal(a1-4)GlcNAc,0.057
same,glycan array binding signal (z-score),Gal(a1-6)Glc,-0.176
same,glycan array binding signal (z-score),Gal(b1-2)Gal,-0.193
same,glycan array binding signal (z-score),Gal(b1-3)Gal,-0.173
same,glycan array binding signal (z-score),Gal(b1-3)Gal(b1-4)GlcNAc,-0.15
same,glycan array binding signal (z-score),Gal(b1-3)GalNAc,-0.159
same,glycan array binding signal (z-score),[16],-0.181
same,glycan array binding signal (z-score),[17],-0.251
same,glycan array binding signal (z-score),Gal(b1-3)GalNAc(b1-3)Gal,-0.169
same,glycan array binding signal (z-score),[18],0.019
same,glycan array binding signal (z-score),[19],-0.194
same,glycan array binding signal (z-score),[20],-0.062
same,glycan array binding signal (z-score),Gal(b1-3)GlcNAc,-0.128
